Test results published in the supplement of paper PMC9446081.
About 220 (0.56%) of roughly 39,000 compounds showed activity. The list shows a part of the results.

Test system: Escherichia coli K-12 BW25113
Experiment: relative growth (OD600 normalised to plate interquartile mean) (fraction); higher = less growth inhibition, active = 0.2 or less
Conditions: 50 µM; LB; incubation time: overnight (16-24 h)
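Also: static incubation at 37 °C against the wild-type strain, values averaged over two biological replicates.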

SMILES | relative growth
C[C@@H]1CN([C@@H](C)CO)C(=O)Cc2cc(NC(=O)NC3CCCCC3)ccc2O[C@@H]1CN(C)S(=O)(=O)c1cn(C)cn1 | inactive: 0.981
C[C@H]1CC/C=C\[C@H]2O[C@@]34C=CCN(c5ccc6ccccc6c5)C(=O)[C@H]3N(CCO)C(=O)[C@@H]4[C@@H]2C(=O)O1 | inactive: 0.983
COc1ccc(CN(C)C[C@H]2Oc3ccc(NC(=O)Nc4ccc(C(F)(F)F)cc4)cc3CC(=O)N([C@@H](C)CO)C[C@@H]2C)cc1 | inactive: 0.99
COc1ccc(CN(C)C[C@H]2OCCCC[C@H](C)Oc3ccc(NC(=O)c4ccncc4)cc3C(=O)N([C@H](C)CO)C[C@H]2C)cc1 | inactive: 0.998
C[C@H](CO)N1C[C@H](C)[C@@H](CN(C)C(=O)NC2CCCCC2)Oc2ccc(NC(=O)C3CC3)cc2C1=O | inactive: 0.998
C[C@H]1CN([C@@H](C)CO)C(=O)Cc2cc(NC(=O)CCN3CCOCC3)ccc2O[C@@H]1CN(C)C(=O)NC1CCCCC1 | inactive: 0.992
CC(C)(C)S(=O)N1Cc2cc(C(=O)N[C@@H]3CCN(Cc4ccccc4)C3)nc(-c3cccc(C#CCC4CCCC4)c3)c2[C@H]1CCO (stereo partly drawn) | inactive: 1.06
c1coc(CNc2nc[n+]3c4c2ncn4CC3)c1 | inactive: 0.965
Cc1ccc(S(=O)(=O)N(C)C[C@H]2Oc3c(NS(=O)(=O)c4cn(C)cn4)cccc3C(=O)N([C@H](C)CO)C[C@H]2C)cc1 | inactive: 0.977
C[C@@H]1CN([C@@H](C)CO)C(=O)c2cc(NS(=O)(=O)c3cn(C)cn3)ccc2O[C@@H](C)CCCCO[C@H]1CN(C)S(=O)(=O)c1cccs1 | inactive: 1.02
C[C@@H]1CN([C@H](C)CO)C(=O)c2cccc(NS(=O)(=O)c3ccc(F)cc3)c2O[C@@H]1CN(C)S(=O)(=O)c1cccs1 | inactive: 0.997
Cc1ccc(S(=O)(=O)Nc2ccc3c(c2)CC(=O)N([C@@H](C)CO)C[C@@H](C)[C@H](CN(C)S(=O)(=O)c2cn(C)cn2)O3)cc1 | inactive: 0.992
Cc1ccc(S(=O)(=O)N(C)C[C@H]2Oc3ccc(NC(=O)CCN4CCOCC4)cc3C(=O)N([C@H](C)CO)C[C@@H]2C)cc1 | inactive: 0.905
O=C1NC[C@@H](c2ccccc2)OC(=O)[C@@H](Cc2ccc(F)cc2)CC/C=C/C[C@@H]1CC(=O)N(CCO)Cc1ccccc1 | inactive: 1
C[C@@H]1CCCCO[C@H](CN(C)Cc2ccc3c(c2)OCO3)[C@@H](C)CN([C@@H](C)CO)C(=O)c2cc(NC(=O)Nc3ccc(F)cc3)ccc2O1 | inactive: 1.01
C=CCN(C#N)c1nc(N(C)C)nc(N(C)C)n1 | inactive: 1.02
C[C@H](CO)N1C[C@H](C)[C@@H](CN(C)C(=O)Nc2cccc3ccccc23)Oc2ccc(NC(=O)Nc3cccc4ccccc34)cc2C1=O | inactive: 1.07
Cc1noc(C)c1S(=O)(=O)Nc1ccc2c(c1)C(=O)N([C@@H](C)CO)C[C@@H](C)[C@H](CN(C)Cc1ccc(-c3ccccc3)cc1)O2 | inactive: 0.981
COc1ccc(S(=O)(=O)Nc2ccc3c(c2)C(=O)N([C@@H](C)CO)C[C@H](C)[C@H](CN(C)S(C)(=O)=O)O3)cc1 | inactive: 0.997

SMILES | relative growth
NCCCN1CCCN(CCCN)CC1 | inactive: 0.977
Cc1noc(C)c1NC(=O)Nc1ccc2c(c1)CC(=O)N([C@H](C)CO)C[C@@H](C)[C@H](CN(C)S(=O)(=O)c1c(C)noc1C)O2 | inactive: 1
C[C@@H]1CN([C@@H](C)CO)C(=O)c2cc(NS(=O)(=O)c3cccs3)ccc2O[C@@H](C)CCCCO[C@@H]1CN(C)Cc1ccc(C(F)(F)F)cc1 | inactive: 1.05
CC(=O)N(C)C[C@@H]1Oc2ncc(C#CC(C)(C)O)cc2C(=O)N([C@H](C)CO)C[C@@H]1C | inactive: 0.986
C[C@H](CO)N1C[C@H](C)[C@H](CN(C)C(=O)Nc2cccc(F)c2)Oc2ncc(C#CCN(C)C)cc2C1=O | inactive: 0.993
O=C(C[C@@H]1CC[C@H]2[C@@H](COC[C@H](O)CN2C(=O)Nc2cccc(Cl)c2)O1)NCCCN1CCOCC1 | inactive: 0.944
C[C@H](CO)N1C[C@H](C)[C@@H](CN(C)Cc2ccc(C(=O)Nc3ccccc3N)cc2)Oc2ccc(NC(=O)Cn3cnnn3)cc2CC1=O | inactive: 1.01
Cc1noc(C)c1NC(=O)Nc1ccc2c(c1)C(=O)N([C@@H](C)CO)C[C@H](C)[C@@H](CN(C)Cc1ccc(C(=O)O)cc1)OCCCC[C@H](C)O2 | inactive: 0.917
C[C@@H]1CCCCO[C@@H](CN(C)S(=O)(=O)c2ccccc2)[C@H](C)CN([C@H](C)CO)C(=O)c2cc(NS(=O)(=O)c3ccc(Cl)cc3)ccc2O1 | inactive: 1.02
C[C@H]1CN([C@@H](C)CO)C(=O)c2cc(NS(C)(=O)=O)ccc2O[C@H]1CN(C)C(=O)Nc1ccccc1 | inactive: 0.986
O=c1ccn(C2OC(CO)C(O)C2O)c(=O)[nH]1 (stereo not drawn) | inactive: 1.01
CO[C@H]1CN(C)C(=O)c2ccc(NS(=O)(=O)CC(F)(F)F)cc2OC[C@H](C)N(Cc2ccccn2)C[C@@H]1C | inactive: 1.04
C[C@@H]1CN([C@@H](C)CO)C(=O)c2c(c3ccccc3n2C)-c2ccccc2CO[C@@H]1CN(C)C(=O)Nc1ccccc1 | inactive: 1
C[C@@H]1CCCCO[C@@H](CN(C)CC2CC2)[C@H](C)CN([C@H](C)CO)C(=O)c2cc(NC(=O)Nc3cccc4ccccc34)ccc2O1 | inactive: 0.982
CC(=O)NCC1CN(c2ccc(N3CCOCC3)c(F)c2)C(=O)O1 (stereo not drawn) | inactive: 0.701
Cc1noc(C)c1NC(=O)N(C)C[C@@H]1Oc2ccc(NC(=O)C3CC3)cc2C(=O)N([C@@H](C)CO)C[C@@H]1C | inactive: 0.971
C[C@@H]1CN([C@@H](C)CO)C(=O)c2ccccc2-c2ccccc2CO[C@@H]1CN(C)Cc1ccc(Cl)c(Cl)c1 | inactive: 1.02
C[C@H](CO)N1C[C@H](C)[C@@H](CN(C)S(=O)(=O)c2cn(C)cn2)Oc2ccc(NC(=O)Nc3ccc4c(c3)OCO4)cc2CC1=O | inactive: 0.978
COC(=O)N1CCC(CN)CC1 | inactive: 1.01
